# The whole screen tested about 3,200 compounds, of which about 75 (2%) showed an effect of 50% or more. The list shows a part of the results.
# System: T1, S. aureus MSSA476
# T1 construct: MSSA476
# Design: species or system S. aureus MSSA476 (TSB) or V. cholerae SAD30 (LB); 384-well bacterial growth screen at 25 uM, OD600 relative to DMSO control
# Settings: relative growth, OD600, TSB; 25 µM; inhibitor
row,SMILES,% of control remaining
1,"C=CC(=O)N(C)CC(=O)NC(C)c1ncc(C)s1 (centres unmarked) [3-I14, N-methyl-N-({[1-(5-methyl-1,3-thiazol-2-yl)ethyl]carbamoyl}methyl)prop-2-enamide]",86.3735%
2,"O=C(CCl)N(Cc1cccs1)C1CCS(=O)(=O)C1 (centres unmarked) [4-L12, 2-chloro-N-(1,1-dioxo-1lambda6-thiolan-3-yl)-N-[(thiophen-2-yl)methyl]acetamide]",106.717%
3,"Cc1n[nH]c(C)c1C=C(C#N)C(=O)Nc1cc(Cl)cc(Cl)c1 [8-M08, 2-cyano-N-(3,5-dichlorophenyl)-3-(3,5-dimethyl-1H-pyrazol-4-yl)prop-2-enamide]",72.3651%
4,"Cc1cccc(Cc2cnc(NC(=O)C(C)Cl)s2)c1 (centres unmarked) [4-D19, 2-chloro-N-{5-[(3-methylphenyl)methyl]-1,3-thiazol-2-yl}propanamide]",94.5212%
5,"N#CC(=Cc1ccc(OC(F)F)cc1)C(=O)NC1CCCCC1 [9-A04, 2-cyano-N-cyclohexyl-3-[4-(difluoromethoxy)phenyl]prop-2-enamide]",56.3296%
6,"C=CC(=O)NCc1nnnn1-c1ccc(F)cc1 [1-M22, N-{[1-(4-fluorophenyl)-1H-1,2,3,4-tetrazol-5-yl]methyl}prop-2-enamide]",121.319%
7,"C=CC(=O)N1CCC(C(=O)N2CCC(CC(=O)N(C)C)CC2)CC1 [2-H09, N,N-dimethyl-2-{1-[1-(prop-2-enoyl)piperidine-4-carbonyl]piperidin-4-yl}acetamide]",95.7354%
8,"O=C(CCl)c1c[nH]c2ccc(F)cc12 [10-O11, 2-chloro-1-(5-fluoro-1H-indol-3-yl)ethan-1-one]",120.625%
9,"C=CC(=O)NCc1ccc(C(=O)N2CCN(C(C)=O)CC2)cc1 [3-G17, N-{[4-(4-acetylpiperazine-1-carbonyl)phenyl]methyl}prop-2-enamide]",113.888%
10,"CC(C1CC1)N(Cc1ccccc1)C(=O)CCl (centres unmarked) [5-F09, N-benzyl-2-chloro-N-(1-cyclopropylethyl)acetamide]",110.383%
11,"O=C(CCl)C1CC1(Cl)Cl (centres unmarked) [10-K09, 2-chloro-1-(2,2-dichlorocyclopropyl)ethan-1-one]",114.687%
12,"C=CC(=O)NC1CCc2ccccc21 (centres unmarked) [1-A14, N-(2,3-dihydro-1H-inden-1-yl)prop-2-enamide]",127.297%
13,"Cc1nn(CCC(=O)N2CCSSCC2)c(C)c1[N+](=O)[O-] [10-J05, 3-(3,5-dimethyl-4-nitro-1H-pyrazol-1-yl)-1-(1,2,5-dithiazepan-5-yl)propan-1-one]",96.5625%
14,"CC(Cl)C(=O)NCC1CN(c2nncs2)CCO1 (centres unmarked) [7-O03, 2-chloro-N-{[4-(1,3,4-thiadiazol-2-yl)morpholin-2-yl]methyl}propanamide]",123.391%
15,"CC(C)C(NC(=O)CCl)c1ccc(F)c(C#N)c1 (centres unmarked) [6-I19, 2-chloro-N-[1-(3-cyano-4-fluorophenyl)-2-methylpropyl]acetamide]",108.927%
16,"CCOc1ccc(NC(=O)C(C#N)=Cc2ccc(F)cc2)cc1 [8-N07, 2-cyano-N-(4-ethoxyphenyl)-3-(4-fluorophenyl)prop-2-enamide]",113.527%
17,"Cc1nc(C(NC(=O)CCl)c2ccccc2)no1 (centres unmarked) [7-F08, 2-chloro-N-[(5-methyl-1,2,4-oxadiazol-3-yl)(phenyl)methyl]acetamide]",108.32%
18,"CC(Cl)C(=O)NCc1cccs1 (centres unmarked) [4-P11, 2-chloro-N-[(thiophen-2-yl)methyl]propanamide]",104.812%
19,"C=CC(=O)NCCC1CCCS1(=O)=O (centres unmarked) [3-C12, N-[2-(1,1-dioxo-1lambda6-thiolan-2-yl)ethyl]prop-2-enamide]",115.281%
20,"COc1cc(C=C(C#N)C(=O)NC(C)C)sn1 [9-N12, 2-cyano-3-(3-methoxy-1,2-thiazol-5-yl)-N-(propan-2-yl)prop-2-enamide]",119.85%
21,"C=CC(=O)N1CCN(Cc2ccon2)CC1 [1-N20, 1-{4-[(1,2-oxazol-3-yl)methyl]piperazin-1-yl}prop-2-en-1-one]",112.176%
22,"C=CC(=O)N1CCC(C(=O)NCC(C)(C)C=C)CC1 [2-G04, N-(2,2-dimethylbut-3-en-1-yl)-1-(prop-2-enoyl)piperidine-4-carboxamide]",95.0392%
23,"CC(Cl)C(=O)NCC1CN(c2ccc(Cl)cc2)CCO1 (centres unmarked) [6-F07, 2-chloro-N-{[4-(4-chlorophenyl)morpholin-2-yl]methyl}propanamide]",89.8049%
24,"CC1CCCN(C(=O)C(NC(=O)CCl)c2cnn(C)c2)C1 (centres unmarked) [6-H05, 2-chloro-N-[1-(1-methyl-1H-pyrazol-4-yl)-2-(3-methylpiperidin-1-yl)-2-oxoethyl]acetamide]",93.2195%
25,"Cc1cc(C)cc(-n2c(C)cc(C(=O)CCl)c2C)c1 [10-E04, 2-chloro-1-[1-(3,5-dimethylphenyl)-2,5-dimethyl-1H-pyrrol-3-yl]ethan-1-one]",128.438%
26,"N#CC(=Cc1ccc(O)cc1)C(=O)NCCc1c(F)cccc1F [9-I16, 2-cyano-N-[2-(2,6-difluorophenyl)ethyl]-3-(4-hydroxyphenyl)prop-2-enamide]",116.854%
27,"O=C(CCl)N(Cc1ccccc1)c1nc2c(s1)CCCC2 [4-C17, N-benzyl-2-chloro-N-(4,5,6,7-tetrahydro-1,3-benzothiazol-2-yl)acetamide]",138.352%
28,"CC(Cl)C(=O)N(C)Cc1cc(C(C)(C)C)[nH]n1 (centres unmarked) [7-B21, N-[(5-tert-butyl-1H-pyrazol-3-yl)methyl]-2-chloro-N-methylpropanamide]",99.529%
29,"Cc1ccsc1C=C(C#N)C(=O)N1CCN(c2ccccc2)CC1 [8-B13, 3-(3-methylthiophen-2-yl)-2-(4-phenylpiperazine-1-carbonyl)prop-2-enenitrile]",114.855%

# Reference: publication PMC11995724, “Antibiotic target discovery by integrated phenotypic and activity-based profiling of electrophilic fragments” (Cell chemical biology, 2025)
